{"source": "patent US20100092429A1", "about": "“Composition” (Danisco A/S, priority 2006, published 2010)", "system": "Cl. perfringens", "format": "cell-based, Clostridium perfringens", "details": "24 h, 1 w/v-% carbohydrate", "note": "Like-named read-outs stand apart in the source and are kept apart here."}
{"smiles": "OC[C@H]1O[C@H](O)[C@H](O)[C@@H](O)[C@@H]1O", "note": "[Glucose, Alpha-D-Glucose]", "values": [{"measurement": "average area under the growth curve without medium", "setting": "Table 9 first experiment, C. perfringens", "value": 1006}, {"measurement": "average area under the growth curve without medium", "setting": "Table 10 second experiment, Cl. perfringens", "value": 1059}]}
